# Test results reported in article PMC4336329 (PLoS ONE, 2015).
# Screen size: about 310,000 compounds; about 2,200 (0.71%) showed an effect of 50% or more. Effects have a minus sign here. The list shows a part of the results. Where a SMILES comes first, the peptide text is derived from it. [ ]: non-standard residue; d: D form. The star is where a group is joined. ξ: configuration not given here. ξF = NC(Cc1ccccc1)C(=O)O; Cbz = O=C(OCc1ccccc1)*
# Biological target: human ether-à-go-go-related gene (hERG) potassium channel (human, UniProt Q12809)
# Experiment: primary screen, population patch clamp on CHO cells stably expressing hERG
# Chain of human ether-à-go-go-related gene (hERG) potassium channel (Q12809 whole entry, looked up): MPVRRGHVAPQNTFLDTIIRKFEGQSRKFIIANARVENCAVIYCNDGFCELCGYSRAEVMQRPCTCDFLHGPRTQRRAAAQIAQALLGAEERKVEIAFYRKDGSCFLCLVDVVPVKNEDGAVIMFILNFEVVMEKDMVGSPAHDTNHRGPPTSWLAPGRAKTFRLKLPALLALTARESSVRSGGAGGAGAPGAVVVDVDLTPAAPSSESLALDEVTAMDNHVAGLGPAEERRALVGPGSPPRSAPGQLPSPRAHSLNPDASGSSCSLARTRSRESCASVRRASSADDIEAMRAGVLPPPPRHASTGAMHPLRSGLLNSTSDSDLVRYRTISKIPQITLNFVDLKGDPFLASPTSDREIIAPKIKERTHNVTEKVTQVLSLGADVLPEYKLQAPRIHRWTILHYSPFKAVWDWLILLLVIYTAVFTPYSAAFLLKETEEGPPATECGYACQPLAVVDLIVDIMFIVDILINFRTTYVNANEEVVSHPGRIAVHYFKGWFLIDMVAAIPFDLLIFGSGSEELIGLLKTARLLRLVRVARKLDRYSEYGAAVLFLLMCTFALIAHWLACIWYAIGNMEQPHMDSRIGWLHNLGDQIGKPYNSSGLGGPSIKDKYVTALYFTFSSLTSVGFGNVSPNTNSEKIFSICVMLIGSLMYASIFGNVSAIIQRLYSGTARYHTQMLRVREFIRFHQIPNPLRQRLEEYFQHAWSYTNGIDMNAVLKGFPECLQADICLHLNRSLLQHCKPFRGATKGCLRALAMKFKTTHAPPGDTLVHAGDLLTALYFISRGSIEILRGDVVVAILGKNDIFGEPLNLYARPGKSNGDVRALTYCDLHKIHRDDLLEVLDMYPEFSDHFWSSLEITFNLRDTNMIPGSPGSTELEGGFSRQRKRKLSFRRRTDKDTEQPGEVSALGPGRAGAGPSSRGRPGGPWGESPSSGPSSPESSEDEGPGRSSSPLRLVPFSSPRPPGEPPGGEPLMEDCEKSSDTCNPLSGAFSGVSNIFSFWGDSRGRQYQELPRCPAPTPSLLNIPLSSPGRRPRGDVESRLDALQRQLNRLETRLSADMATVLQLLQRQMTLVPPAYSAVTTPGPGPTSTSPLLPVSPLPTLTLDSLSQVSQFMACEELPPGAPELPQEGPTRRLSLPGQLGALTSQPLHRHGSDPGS
row,SMILES,"hERG current change (%, negative = inhibition) at 1uM"
1,COc1ccc(C)cc1NS(=O)(=O)c1ccc2c(c1)N(C)CCO2,9.08%
2,O=C(Cc1ccc([N+](=O)[O-])cc1)Nc1ccon1,9.48%
3,CCOC(=O)N1CCC2(CC1)C(C#N)=C(N)OC1=C2C(=O)CCC1,9.95%
4,O=C(CCCOc1ccc(Br)cc1)NCCc1ccc(OC(F)F)cc1,-4.05%
5,O=C(c1cc2cc(Br)ccc2o1)N1CCCCC1,1.01%
6,COc1cc(C(=O)N2CCNCC2)cc(OC)c1OC.O=C(O)C(F)(F)F,15.5%
7,O=C(O)c1cc2c(cc1NC(=O)c1ccccc1C(F)(F)F)OCCCO2,9.26%
8,CSC1=NCCN1C(=O)c1ccc2ccccc2c1,13.5%
9,CCC1SC(=NC(=O)c2ccc(Cl)c(Cl)c2)NC1=O (stereo not drawn),6.6%
10,CS(=O)(=O)N1CCN(c2ccccc2NC(=O)Cc2ccc(Cl)cc2)CC1,1.26%
11,COc1cc(/C=C2/C(=O)NN(c3cccc(Cl)c3)C2=O)cc(OC)c1O,8.86%
12,CC(=O)CC1(O)C(=O)Nc2ccccc21 (stereo not drawn),17.1%
13,Cc1cc(C)c(NC(=O)CSc2nnc(CNC(=O)c3ccccc3F)o2)c(C)c1,7.46%
14,CCOC(=O)CNC(=O)C(Cc1ccccc1)NC(=O)OCc1ccccc1 (stereo not drawn) (Cbz-[ξF]-Gly-OEt),-9.79%
15,CCn1cc(CN2CCC(C(=O)Nc3cccc(-c4cccc(F)c4)c3)CC2)cn1,-29.2%
16,CC(=O)N(C)C1(c2nnnn2CCOC(=O)Nc2cccc3ccccc23)CCCC1,2.05%
17,O=C(CCN1C(=O)/C(=C/c2ccccc2)SC1=S)N1CCCCCC1,9.27%
18,O=C(O)CCN1C(=O)c2ccc(NC(=O)C(c3ccccc3)c3ccccc3)cc2C1=O,14.6%
19,COc1cc(OC)c(C(=O)NC2CCCc3ccccc32)cc1OC (stereo not drawn),10.2%
20,N#C/C(=C\c1ccc(OC(=O)c2ccc(Br)s2)cc1)c1nc2ccccc2[nH]1,11.7%
21,CC1CCN(C(=O)c2ccc3c(c2)OCO3)CC1,19.6%
22,CCCCOC(=O)CN1C(=O)c2ccc(C(=O)OCCCC)cc2C1=O,11%

row,SMILES,"hERG current change (%, negative = inhibition) at 1uM"
1,Cl.O=C(c1ccc(NS(=O)(=O)c2cccs2)cc1)N1CCN(c2ccccc2Cl)CC1,11.1%
2,COc1cc(-c2cc(C(=O)Nc3cccc(C(C)=O)c3)c3ccccc3n2)cc(OC)c1OC,12.5%
3,O=C(NCCN=C1NS(=O)(=O)c2ccccc21)c1ccncc1,2.93%
4,COC(=O)CCC(=O)NNC(=O)c1ccc(Br)cc1,8.83%
5,Cc1cccc(NC(=O)Cn2cccc2)c1,6.74%
6,O=C(CSc1nc(-c2ccco2)cc(C(F)(F)F)n1)Nc1ccccc1C(F)(F)F,-2.77%
7,COc1ccc(S(=O)(=O)N2CCCOC2CNC(=O)C(=O)NCCCN2CCOCC2)cc1C (stereo not drawn),13.5%
8,CC(CNC(=O)COC(=O)c1ccco1)c1ccccc1 (stereo not drawn),6.17%
9,CC(Oc1ccc(Cl)cc1Cl)C(=O)NNC(=O)c1ccncc1 (stereo not drawn),-0.0897%
10,CSc1cccc(NS(=O)(=O)c2ccccc2)c1,10.3%
11,CC1CCN(C(=O)CSc2nnc(Cc3cc(=O)[nH]c(=O)[nH]3)n2-c2ccc(Cl)cc2)CC1,6.13%
12,COc1cccc(N(C(=O)c2sc(C)nc2C)C(C(=O)NCC2CCCO2)c2ccccc2)c1 (stereo not drawn),8.09%
13,CSCCC(NC(=O)c1ccc([N+](=O)[O-])cc1Cl)C(=O)OCC(=O)NCC(F)(F)F (stereo not drawn),1.6%
14,O=C(N/N=C/c1c[nH]c2ccccc12)c1ccc(Br)cc1,8.89%
15,Cc1ccccc1-n1c(C)nnc1SCC(=O)NNC(=O)c1ccccc1,9.37%
16,CSc1nncc(-c2ccccc2)n1,4.91%
17,CCN(Cc1ccc(OC)c(F)c1)C(=O)/C=C/c1ccc(S(=O)(=O)N2CCOCC2)cc1,0.639%
18,COc1cc(C(=O)OCC(=O)Nc2cccc(S(=O)(=O)N3CCOCC3)c2)ccc1OCC(C)C,8.06%
19,COC(=O)COc1ccc(-c2nccc(-c3ccc(Br)cc3)n2)cc1,3.66%
20,CCOC(=O)N1CCN(S(=O)(=O)Cc2ccccc2)CC1,13.8%
21,CC(C)c1ccc(OCC(=O)N2CCc3ccccc3C2)cc1,13.4%
22,COc1ccc(/C=C2\SC(=S)N(CCC(=O)N3CCCCC3CCO)C2=O)cc1 (stereo not drawn),13.2%

row,SMILES,"hERG current change (%, negative = inhibition) at 1uM"
1,Cc1ccc(S(=O)(=O)N2CCC(C(=O)N[C@@H](C)C(=O)Nc3ccc4c(c3)OCO4)CC2)cc1,-6.05%
2,C/C(=N\NC(=S)NC1CCCCC1)c1c(F)cccc1F,13.3%
3,Oc1c(C=C2N=c3ccccc3=N2)sc(=S)n1C1CCCCC1 [17433500],7.92%
4,O=S(=O)(NCCc1ccc2c(c1)OCCO2)c1cccs1,3.03%
5,COc1cccc(CN2C(=O)[C@@H]3Cc4c([nH]c5ccccc45)C(C)(C)N3C2=O)c1,9.97%
6,COc1cccc(C2CC(c3cccc(NS(C)(=O)=O)c3)=NN2C(=O)c2ccccc2)c1OC (stereo not drawn),-5.58%
7,NS(=O)(=O)c1cc(C(=O)Nc2ccc3c(c2)OCCCO3)ccc1Cl,14.7%
8,CCOC(=O)CNC(c1ccccc1)c1cc(Br)ccc1NC(=O)OCC (stereo not drawn),11.3%
9,COc1ccc(OC)c(NC(=O)CCC(=O)N(Cc2ccc(OC)c(OC)c2)c2nccs2)c1,11.6%
10,COc1cc(/C=C(/NC(=O)c2ccccc2)C(=O)N2CCN(C)CC2)c([N+](=O)[O-])cc1OC,2.75%
11,CCN(C(=O)COC(=O)c1ccc2ccccc2c1)c1c(N)n(Cc2ccccc2)c(=O)[nH]c1=O,9.57%
12,CC(C)CN(C(=O)COc1ccc(C(C)(C)C)cc1)C1CCS(=O)(=O)C1 (stereo not drawn),5.69%
13,C=C1CCN([C@H](C(=O)NCc2ccccc2)C(C)C)S(=O)(=O)c2ccccc21,7.82%
14,O=C1C2CC=CCC2C(=O)N1c1ccc(Cc2ccncc2)cc1 (stereo not drawn),-20.5%
15,CC1(C)Cc2c(C#N)c(SCCO)nc(N3CCOCC3)c2CO1,11.9%
16,CCOc1ccc2c(c1)nc(C)n2C,13.1%
17,C[n+]1cn(Cc2cc(Cl)ccc2OC(F)F)c2ccccc21.[Br-],2.86%
18,COc1ccc(/C(C)=N/OC/C(O)=C(\C#N)c2nc3ccccc3[nH]2)cc1OC,2.18%
19,COc1ccccc1NC(=O)NCC(=O)Nc1c(C)cccc1C,21.3%
20,Cc1c(C(=O)NCCSCc2ccco2)cccc1[N+](=O)[O-],9.46%
21,CCOc1ccc(-n2c(O)c(N=Nc3ccc([N+](=O)[O-])cc3)c(=O)[nH]c2=O)cc1,16%
22,COc1cc(S(=O)(=O)N2CCCCC2)ccc1NC(C)=O,-6.87%

row,SMILES,"hERG current change (%, negative = inhibition) at 1uM"
1,COc1ccc(C2(CNC(=O)c3ccco3)CCOCC2)cc1,4.35%
2,Cc1c(CN(C)CCc2ccccc2)c(=O)n(-c2ccccc2)n1C,9.12%
3,CCC(=O)N(c1nnc(SCC(=O)NN2C(=O)NC3(CCCCC3)C2=O)s1)C1CC1,5.45%
4,COc1cc2c(cc1OC)C(c1ccc(Br)cc1)NC(=O)C2 (stereo not drawn),14.7%
5,COC(=O)/C=C1/N/C(=N\c2nc(C)cc(C)n2)N(c2ccc(Cl)cc2)C1=O,12.5%
6,CCCCNC(=O)CSc1nnc(NC(C)=O)s1,2.62%
7,CN1CCC(=C2c3ccccc3C(O)c3ccccc32)CC1 (stereo not drawn),9.82%
8,CCOc1ccc(CN(C)CC(=O)Nc2ccc(N3CCOCC3)cc2)cc1OC,-2.31%
9,CCN(CC)Cc1c(C(=O)N/N=C/c2ccccn2)nnn1-c1nonc1N,-5.44%
10,CCNC(=O)NC(=O)C(C)OC(=O)c1cc(S(=O)(=O)N2CCCCCC2)ccc1OC (stereo not drawn),3.17%
11,NC(C(=O)O)C(c1ccccc1)C(F)F (stereo not drawn),16.9%
12,CSc1ccc(NC(=O)NCc2ccccc2)cc1,17.9%
13,CCC1CCCCN1C(=O)NC(=O)c1ccccc1 (stereo not drawn),24.9%
14,COc1ccccc1NC(=O)/C(=C\c1cccs1)NC(=O)c1ccco1,7.99%
15,Cc1c(NC(=O)CCCCCN2C(=O)c3ccccc3C2=O)c(=O)n(-c2ccccc2)n1C,9.37%
16,COC(=O)c1ccc(CN2CCN(C3CCCC3)C(CCO)C2)cc1 (stereo not drawn),-12.9%
17,CC1(C)CC(=NOC(=O)c2ccccc2)CC(C)(C)N1O,14.1%
18,CCOC(=O)c1ccc(NC(=O)COc2ccc(S(=O)(=O)NC(C)CC)cc2)cc1 (stereo not drawn),-6.09%
19,O=S(=O)(c1ccc(N2CCN(Cc3ccc4c(c3)OCO4)CC2)nc1)N1CCOCC1,3.35%
20,Cc1cnc(C(=O)OCC(=O)NC2CCCC(C)C2C)cn1 (stereo not drawn),8.03%
21,CCOc1ccc(C2/C(=C(\O)c3ccc4c(c3)OCCO4)C(=O)C(=O)N2CCCN2CCOCC2)cc1OC (stereo not drawn),2.75%
